Source: the supplement of paper PMC6609913
Counter-ions that a name gives are not always drawn. ± gives the standard deviation of the averaged measurements. The full ranking holds about 1,300 compounds; the median of “normalised cell viability” is about 1, and the lowest 2% start at about 0.15. Some of the results follow.

Tested on: V-C8 + BRCA2 (BRCA2-proficient hamster cells)
Experiment: normalised cell viability (fraction of plate median); higher = more viable cells (less toxic)
Details: 5 µM
Procedure, shortened: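 Hamster V-C8 cells with and without restored BRCA2 were exposed in 96-well plates to library drugs at 5 μM for 3 days (screen 1) or 6 days (screen 2). Cell viability was scored by resazurin assay, then median-plate normalised, averaging triplicate wells.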

Row | SMILES | normalised cell viability (treatment time: 3 days) | normalised cell viability (treatment time: 6 days)
1 | CCCSc1ccc2[nH]c(NC(=O)OC)nc2c1 [Albendazole] | 0.198 ± 0.0084 | 0.183 ± 0.011
2 | Cc1c(Cl)cccc1Nc1ccccc1C(=O)O [Tolfenamic acid] | 0.962 ± 0.086 | 1.12 ± 0.073
3 | CO[C@H]1/C=C/O[C@@]2(C)Oc3c(C)c(O)c4c(O)c(c(/C=N/N5CCN(C)CC5)c(O)c4c3C2=O)NC(=O)/C(C)=C\C=C\[C@H](C)[C@H](O)[C@@H](C)[C@@H](O)[C@@H](C)[C@H](OC(C)=O)[C@@H]1C [Rifampicin] | 1.01 ± 0.029 | 0.989 ± 0.036
4 | Cc1ccc(N(CC2=NCCN2)c2cccc(O)c2)cc1 [Phentolamine hydrochloride] | 0.9957 ± 0.0093 | 0.989 ± 0.11
5 | CCc1ccc(CCOc2ccc(CC3SC(=O)NC3=O)cc2)nc1 (stereo not given) [Pioglitazone] | 0.354 ± 0.027 | 0.259 ± 0.025
6 | C[C@H](N[C@@H](CCc1ccccc1)C(=O)O)C(=O)N1CCC[C@H]1C(=O)O [Enalaprilat dihydrate] | 1.01 ± 0.011 | 1.09 ± 0.077
7 | CN(C)[C@@H]1C(O)=C(C(N)=O)C(=O)[C@@]2(O)C(O)=C3C(=O)c4c(O)cccc4[C@@](C)(O)[C@H]3C[C@@H]12 [Tetracycline hydrochloride] | 1.1 ± 0.052 | 1.03 ± 0.058
8 | CC(=O)[C@@]12O[C@](C)(c3ccccc3)O[C@@H]1C[C@H]1[C@@H]3CCC4=CC(=O)CC[C@]4(C)[C@H]3CC[C@@]12C [Algestone acetophenide] | 0.968 ± 0.025 | 1.07 ± 0.1
9 | COCCCC/C(=N\OCCN)c1ccc(C(F)(F)F)cc1 [Fluvoxamine maleate] | 0.97 ± 0.029 | 1.17 ± 0.13
10 | COC(=O)[C@H](c1ccccc1Cl)N1CCc2sccc2C1 [Clopidogrel] | 1.01 ± 0.053 | 1.04 ± 0.021
11 | C[C@]12CCC(=O)C=C1CC[C@@H]1[C@@H]2C(=O)C[C@@]2(C)[C@H]1CC[C@]2(O)C(=O)CO [Cortisone] | 0.997 ± 0.02 | 1.06 ± 0.063
12 | COc1ccc(CC(C)NCC(O)c2ccc(O)c(NC=O)c2)cc1 (stereo not given) [Formoterol fumarate] | 1.04 ± 0.051 | 1 ± 0.074
13 | Cc1c(O)c(=O)n(-c2ccccc2)n1C [Antipyrine, 4-hydroxy] | 0.999 ± 0.0087 | 0.961 ± 0.11
14 | CC(C)OC(=O)C(C)(C)Oc1ccc(C(=O)c2ccc(Cl)cc2)cc1 [Fenofibrate] | 1.04 ± 0.038 | 1.08 ± 0.091
15 | CC=CC1=C(C(=O)O)N2C(=O)[C@@H](NC(=O)[C@H](N)c3ccc(O)cc3)[C@H]2SC1 [Cefprozil] | 0.951 ± 0.071 | 0.908 ± 0.072
16 | Cc1cc2c(s1)Nc1ccccc1N=C2N1CCN(C)CC1 [Olanzapine] | 0.865 ± 0.054 | 0.735 ± 0.034
17 | CC(N)CCCC(C)(C)O (stereo not given) [Heptaminol hydrochloride] | 1.02 ± 0.011 | 0.978 ± 0.079
18 | CN1CCCN=C1/C=C/c1cccc(O)c1 [Oxantel pamoate] | 0.952 ± 0.081 | 1.04 ± 0.08
19 | O=C(O)c1cc(/N=N/c2ccc(S(=O)(=O)Nc3ccccn3)cc2)ccc1O [Sulfasalazine] | 1.03 ± 0.061 | 1.04 ± 0.059
20 | CN/C(=N\CCSCc1nc[nH]c1C)NC#N [Cimetidine] | 1.02 ± 0.016 | 1.04 ± 0.013
21 | CCc1cccc(CC)c1NC(=O)CN(CC(=O)O)CC(=O)O [Etifenin] | 1.04 ± 0.02 | 1.05 ± 0.043
22 | CCCCc1ccc2[nH]c(NC(=O)OC)nc2c1 [Parbendazole] | 0.169 ± 0.014 | 0.19 ± 0.025

Row | SMILES | normalised cell viability (treatment time: 3 days) | normalised cell viability (treatment time: 6 days)
23 | Nc1ncnc2c1ncn2C1OC(COP(=O)(O)O)C(O)C1O (stereo not given) [Adenosine 5'-monophosphate monohydrate] | 1.21 ± 0.031 | 1.02 ± 0.024
24 | CN1CCCN(C(c2ccccc2)c2ccc(Cl)cc2)CC1 (stereo not given) [Homochlorcyclizine dihydrochloride] | 0.802 ± 0.018 | 0.875 ± 0.045
25 | C[C@@H]1C[C@H]2[C@@H]3CCC4=CC(=O)C=C[C@]4(C)[C@@]3(Cl)[C@@H](O)C[C@]2(C)[C@@]1(OC(=O)c1ccco1)C(=O)CCl [Mometasone furoate] | 1.01 ± 0.013 | 0.965 ± 0.041
26 | CCOc1ccc2nc(S(N)(=O)=O)sc2c1 [Ethoxzolamide] | 1.05 ± 0.029 | 1.12 ± 0.13
27 | CC1(C)S[C@@H]2[C@H](NC(=O)[C@H](N)c3ccccc3)C(=O)N2[C@H]1C(=O)O [Ampicillin trihydrate] | 1.19 ± 0.051 | 1.07 ± 0.038
28 | O=c1n(CCCN2CCN(c3cccc(Cl)c3)CC2)nc2ccccn12 [Trazodone hydrochloride] | 1.04 ± 0.047 | 1.1 ± 0.063
29 | COc1ccc2cc([C@H](C)C(=O)O)ccc2c1 [Naproxen] | 1.13 ± 0.065 | 1.09 ± 0.023
30 | Nc1cc(N2CCCCC2)nc(N)[n+]1[O-] [Minoxidil] | 0.994 ± 0.071 | 0.993 ± 0.062
31 | O=C(O)c1ccccc1OP(=O)(O)O [Fosfosal] | 0.966 ± 0.055 | 1.06 ± 0.1
32 | Cc1ncc([N+](=O)[O-])n1CC(C)O (stereo not given) [Secnidazole] | 1.08 ± 0.017 | 1.01 ± 0.017
33 | C/C=C(/C(=C/C)c1ccc(O)cc1)c1ccc(O)cc1 [Dienestrol] | 0.951 ± 0.019 | 0.8703 ± 0.0083
34 | CC(=O)O[C@H]1C(=O)[C@@]2(C)[C@H]([C@H](OC(=O)c3ccccc3)[C@]3(O)C[C@H](OC(=O)[C@H](O)[C@@H](NC(=O)c4ccccc4)c4ccccc4)C(C)=C1C3(C)C)[C@]1(OC(C)=O)CO[C@@H]1C[C@@H]2O [Paclitaxel] | 0.215 ± 0.013 | 0.241 ± 0.033
35 | COc1cccc2c1C(=O)c1c(O)c3c(c(O)c1C2=O)C[C@@](O)(C(=O)CO)C[C@@H]3O[C@H]1C[C@H](N)[C@@H](O)[C@H](C)O1 [Epirubicin hydrochloride] | 0.136 ± 0.0036 | 0.153 ± 0.024
36 | CCCN(CCC)CCc1cccc2c1CC(=O)N2 [Ropinirole HCl] | 1.04 ± 0.042 | 1.05 ± 0.028
37 | N/C(=N\C(=O)c1nc(Cl)c(N)nc1N)NCc1ccccc1 [Benzamil hydrochloride] | 0.904 ± 0.035 | 0.925 ± 0.054
38 | O=C(CCNNC(=O)c1ccncc1)NCc1ccccc1 [Nialamide] | 1.02 ± 0.082 | 0.91 ± 0.23
39 | Cc1nc2ccccn2c(=O)c1CCN1CCC(C(=O)c2ccc(F)cc2)CC1 [Pirenperone] | 1.02 ± 0.024 | 1.1 ± 0.046
40 | CSc1nc2cc(Cl)c(Oc3cccc(Cl)c3Cl)cc2[nH]1 [Triclabendazole] | 0.232 ± 0.011 | 0.213 ± 0.016
41 | NC(=O)c1cnccn1 [Pyrazinamide] | 1.14 ± 0.039 | 1.02 ± 0.043
42 | CC[C@@H]1C(=O)OC[C@@H]1Cc1cncn1C [Pilocarpine nitrate] | 1.04 ± 0.078 | 1.05 ± 0.045
43 | NS(=O)(=O)c1cc2c(cc1C(F)(F)F)NCNS2(=O)=O [Hydroflumethiazide] | 0.966 ± 0.044 | 1 ± 0.015
44 | CC(C)NC[C@@H](O)COc1ccc(CC(N)=O)cc1 [(R)-(+)-Atenolol] | 0.861 ± 0.044 | 0.9064 ± 0.0033

Row | SMILES | normalised cell viability (treatment time: 3 days) | normalised cell viability (treatment time: 6 days)
45 | Cc1c(NC(=O)c2cccnc2)c(=O)n(-c2ccccc2)n1C [Nifenazone] | 1.01 ± 0.042 | 0.987 ± 0.044
46 | CS(=O)(=O)OCCCCOS(C)(=O)=O [Busulfan] | 0.881 ± 0.056 | 1.01 ± 0.013
47 | COc1cccc2c1C(=O)c1c(O)c3c(c(O)c1C2=O)C[C@@](O)(C(C)=O)C[C@@H]3O[C@H]1C[C@H](N)[C@H](O)[C@H](C)O1 [Daunorubicin hydrochloride] | 0.136 ± 0.0082 | 0.128 ± 0.015
48 | C=CC1=C(C(=O)O)N2C(=O)[C@@H](NC(=O)/C(=N\O)c3csc(N)n3)[C@H]2SC1 [Cefdinir] | 1.021 ± 0.0088 | 1.06 ± 0.11
49 | Cc1cn([C@H]2C=C[C@@H](CO)O2)c(=O)[nH]c1=O [Stavudine] | 1.08 ± 0.074 | 0.983 ± 0.027
50 | CC(=O)NS(=O)(=O)c1ccc(N)cc1 [Sulfacetamide sodic hydrate] | 0.989 ± 0.033 | 0.968 ± 0.065
51 | CCN(CC)CC(=O)Nc1c(C)cccc1C [Lidocaïne hydrochloride] | 0.982 ± 0.017 | 0.968 ± 0.096
52 | CC(=O)OCC(=O)[C@@]12OC(C)(C)O[C@@H]1C[C@H]1[C@@H]3C[C@H](F)C4=CC(=O)C=C[C@]4(C)[C@@]3(F)[C@@H](O)C[C@@]12C [Fluocinonide] | 1.04 ± 0.017 | 1.06 ± 0.04
53 | c1ccc2c(CC3=NCCN3)cccc2c1 [Naphazoline hydrochloride] | 1.12 ± 0.025 | 1.1 ± 0.049
54 | CO[C@@H]1[C@@H](O[C@@H]2O[C@H](C)[C@@H](O[C@H]3C[C@@](C)(O)[C@@H](OC(=O)CC(C)C)[C@H](C)O3)[C@H](N(C)C)[C@H]2O)[C@@H](CC=O)C[C@@H](C)[C@@H](O)/C=C/C=C/C[C@@H](C)OC(=O)C[C@H]1OC(C)=O [Josamycin] | 0.841 ± 0.045 | 0.863 ± 0.04
55 | CC(=O)CC(c1ccccc1)c1c(O)c2ccccc2oc1=O (stereo not given) [Warfarin] | 0.943 ± 0.044 | 1.02 ± 0.033
56 | OCCN(CCO)c1nc(N2CCCCC2)c2nc(N(CCO)CCO)nc(N3CCCCC3)c2n1 [Dipyridamole] | 1.01 ± 0.028 | 1.05 ± 0.071
57 | O=C(O)c1ccccc1C(=O)Nc1ccc(S(=O)(=O)Nc2nccs2)cc1 [Phthalylsulfathiazole] | 1.03 ± 0.053 | 1.14 ± 0.026
58 | CN(c1nccc(=O)[nH]1)C1CCN(c2nc3ccccc3n2Cc2ccc(F)cc2)CC1 [Mizolastine] | 1.05 ± 0.06 | 1.1 ± 0.07
59 | CN1CCN(C(c2ccccc2)c2ccccc2)CC1 [Cyclizine hydrochloride] | 1.06 ± 0.043 | 1.07 ± 0.048
60 | CN1CCC(=C2c3ccccc3Sc3ccccc32)CC1 [Pimethixene maleate] | 0.969 ± 0.027 | 1.01 ± 0.032
61 | Nc1c2ccccc2nc2ccccc12 [Aminacrine] | 0.139 ± 0.0043 | 0.156 ± 0.024
62 | C[C@H](CCC(=O)O)[C@H]1CC[C@H]2[C@@H]3[C@@H](O)C[C@@H]4C[C@H](O)CC[C@]4(C)[C@H]3CC[C@]12C [Urosiol] | 0.901 ± 0.091 | 0.899 ± 0.04
63 | C#C[C@]1(O)CC[C@H]2[C@@H]3CCC4=CCCC[C@@H]4[C@H]3CC[C@@]21C [Lynestrenol] | 1.11 ± 0.072 | 1.01 ± 0.12
64 | O=C(CCCN1CCN(c2ccccn2)CC1)c1ccc(F)cc1 [Azaperone] | 1.1 ± 0.34 | 0.902 ± 0.052
65 | NC[C@@H]1O[C@@H](O[C@H]2[C@H](O)[C@@H](O[C@H]3O[C@H](CO)[C@@H](O)[C@H](N)[C@H]3O)[C@H](N)C[C@@H]2N)[C@@H](O)[C@H](O)[C@H]1O [Kanamycin A sulfate] | 0.883 ± 0.056 | 1.04 ± 0.053
